Assay results taken from paper PMC5681660, “Reduced hepatitis B and D viral entry using clinically applied drugs as novel inhibitors of the bile acid transporter NTCP” (Scientific Reports, 2017).

What was measured:
human NTCP [1] = biological target: T1, human NTCP (Homo sapiens, UniProt Q14973); experiment: Screening taurocholate uptake assay (96-well, [14C]taurocholate, 10 µM drug); settings: for remaining activity at 10 µM: 10 min, read-out: %NTCP activity
T1 sequence (Q14973 1-349): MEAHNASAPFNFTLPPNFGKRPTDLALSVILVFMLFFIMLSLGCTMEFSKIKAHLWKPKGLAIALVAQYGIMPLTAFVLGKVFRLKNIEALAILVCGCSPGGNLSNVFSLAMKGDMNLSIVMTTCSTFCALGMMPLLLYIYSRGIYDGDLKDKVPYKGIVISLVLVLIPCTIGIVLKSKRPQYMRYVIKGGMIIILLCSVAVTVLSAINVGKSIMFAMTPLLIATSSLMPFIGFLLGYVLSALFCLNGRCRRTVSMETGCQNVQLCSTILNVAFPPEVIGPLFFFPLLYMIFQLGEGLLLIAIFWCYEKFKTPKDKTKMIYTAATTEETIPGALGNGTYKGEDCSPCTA

human NTCP [2] = biological target: T1, human NTCP; experiment: Screening fluorescent competitive Myrcludex B-FITC binding assay (96-well, 10 µM drug)
[3] = Prestwick library screen, 10 µM drug, Myrcludex B-FITC binding
[4] = Prestwick library screen, Myrcludex B-FITC binding, 10 µM drug
[5] = screen, 10 µM drug, Myrcludex B-FITC binding

| remaining activity at 10 µM (human NTCP [1]) [%] | remaining activity at 10 µM (human NTCP [2]; 0.5 h, read-out: %NTCP binding) [%] | Structure (SMILES) | other results |
| --- | --- | --- | --- |
|  |  | CC(C)(CO)[C@@H](O)C(=O)NCCCO [Panthenol (D)] | %NTCP activity (human NTCP [1]; Prestwick library screen, 10 µM drug, [14C]taurocholate uptake): 123.189%; %NTCP binding (human NTCP [2]; [3]): 109.837% |
| 104 | 98.8 | CC(=O)/N=c1/sc(S(N)(=O)=O)nn1C [Methazolamide] |  |
| 96.6 | 113 | COc1cc(NS(=O)(=O)c2ccc(N)cc2)ncn1 [Sulfamonomethoxine] |  |
| 53.2 | 58 | CCOC(=O)OC(C)OC(=O)[C@@H]1N2C(=O)[C@@H](NC(=O)[C@H](N)c3ccccc3)[C@H]2SC1(C)C (stereo partly shown) [Bacampicillin hydrochloride] |  |
| 48.7 |  | C[C@]12CC[C@@H]3c4ccc(O)cc4CC[C@H]3[C@@H]1CCC2=O [Estrone] | %NTCP binding (human NTCP [2]; [3]): 132.106% |
| 122 | 92.7 | C[C@@H]1C[C@H]2[C@@H]3C[C@H](F)C4=CC(=O)C=C[C@]4(C)[C@@]3(Cl)[C@@H](O)C[C@]2(C)[C@H]1C(=O)COC(=O)C(C)(C)C [Clocortolone pivalate] |  |
| 87.9 | 118 | CO[C@@]1(NC(=O)C(C(=O)O)c2ccc(O)cc2)C(=O)N2C(C(=O)O)=C(CSc3nnnn3C)CO[C@@H]21 (stereo partly shown) [Moxalactam disodium salt] |  |
| 76.7 | 70.1 | O=C1CN2Cc3c(ccc(Cl)c3Cl)N=C2N1 [Anagrelide] |  |
| 129 | 58.7 | COC(=O)Nc1nc2ccc(Sc3ccccc3)cc2[nH]1 [Fenbendazole] |  |
| 128 | 107 | CN(C)CCC(c1ccccc1)c1ccccn1 (stereo not shown) [Pheniramine maleate] |  |
| 108 | 111 | CC(=O)OCC(=O)[C@@]1(O)CC[C@H]2[C@@H]3CCC4=CC(=O)C=C[C@]4(C)[C@@]3(F)[C@@H](O)C[C@@]21C [Isoflupredone acetate] |  |
| 66.1 | 106 | Cc1ccc(-c2cc(C(F)(F)F)nn2-c2ccc(S(N)(=O)=O)cc2)cc1 [Celecoxib] |  |
| 81.9 | 104 | COc1ccccc1O [Guaiacol] |  |
| 144 | 70.5 | Nc1ccc(S(=O)(=O)NC(=O)c2ccccc2)cc1 [Sulfabenzamide] |  |
| 71.2 | 79.2 | C=CC(N)CCC(=O)O (stereo not shown) [Vigabatrin] |  |
| 67.7 | 82.1 | O=C(NCCN1CCOCC1)c1ccc(Cl)cc1 [Moclobemide] |  |
| 120 | 89.2 | CCOC(=O)[C@@](C)(N)Cc1ccc(O)c(O)c1 [Methyldopate hydrochloride] |  |
| 123 | 77 | CN1C(C(=O)Nc2ccccn2)=C(O)c2ccccc2S1(=O)=O [Piroxicam] |  |
| 72.3 | 91.9 | CC(C)(Oc1ccc(C2CC2(Cl)Cl)cc1)C(=O)O (stereo not shown) [Ciprofibrate] |  |
| 117 | 100 | CCCCC(=O)O[C@H]1CC[C@H]2[C@@H]3CCc4cc(O)ccc4[C@H]3CC[C@]12C [Estradiol Valerate] |  |
| 103 | 91.3 | CN(C)c1nc(N(C)C)nc(N(C)C)n1 [Altretamine] |  |
| 125 | 86.7 | Cc1ncc(CO)c(CO)c1O [Pyridoxine hydrochloride] |  |
| 88.5 | 90.2 | c1ccc2c(c1)CCCC2C1=NCCN1 (stereo not shown) [Tetrahydrozoline hydrochloride] |  |
| 114 | 87.6 | CC(N)C12CC3CC(CC(C3)C1)C2 (stereo not shown) [Rimantadine Hydrochloride] |  |
| 57 | 95.2 | O=C(NCCO[N+](=O)[O-])c1cccnc1 [Nicorandil] |  |

| remaining activity at 10 µM (human NTCP [1]) [%] | remaining activity at 10 µM (human NTCP [2]; 0.5 h, read-out: %NTCP binding) [%] | Structure (SMILES) | other results |
| --- | --- | --- | --- |
| 90.7 | 89.6 | Nc1ccc(S(=O)(=O)Nc2ccccn2)cc1 [Sulfapyridine] |  |
| 105 | 118 | CC(N)CCCC(C)(C)O (stereo not shown) [Heptaminol hydrochloride] |  |
| 67.6 | 76.5 | CN1CCCC(CC2c3ccccc3Sc3ccccc32)C1 (stereo not shown) [Metixene hydrochloride] |  |
| 27.9 | 72.4 | CCCNCC(O)COc1ccccc1C(=O)CCc1ccccc1 (stereo not shown) [Propafenone hydrochloride] |  |
| 55.1 | 83.4 | OCCN1C[C@H](O)[C@@H](O)[C@H](O)[C@H]1CO [Miglitol] |  |
|  |  | CN1CCC(=C2c3ccccc3CCc3sccc32)CC1.O=C(O)CC(O)C(=O)O [Pizotifen malate] | %NTCP activity (human NTCP [1]; Prestwick library screen, [14C]taurocholate uptake, 10 µM drug): 78.3273%; %NTCP binding (human NTCP [2]; [4]): 102.931% |
| 125 | 60.7 | CN1CCC(=C2c3ccccc3CC(=O)c3sccc32)CC1 [Ketotifen fumarate] |  |
| 135 | 82.9 | Cc1cnc(C(=O)O)c[n+]1[O-] [Acipimox] |  |
| 115 | 83.6 | N#Cc1ccc(C(c2ccc(C#N)cc2)n2cncn2)cc1 [Letrozole] |  |
| 157 | 119 | CN(C)C(=N)N=C(N)N [Metformin hydrochloride] |  |
| 71.7 | 80.2 | CC(=O)N(CC(O)CO)c1c(I)c(C(=O)NCC(O)CO)c(I)c(C(=O)NCC(O)CO)c1I (stereo not shown) [Iohexol] |  |
| 79.2 | 53.1 | CO[C@@]1(NC(=O)C2SC(=C(C(N)=O)C(=O)O)S2)C(=O)N2C(C(=O)O)=C(CSc3nnnn3C)CS[C@@H]21 (stereo partly shown) [Cefotetan] |  |
| 72.1 | 77.7 | CCCNC(=O)NS(=O)(=O)c1ccc(Cl)cc1 [Chlorpropamide] |  |
| 90.9 | 87.6 | O=S(=O)(O)c1cc(O)ccc1O [Ethamsylate] |  |
|  |  | CC=CC1=C(C(=O)O)N2C(=O)[C@@H](NC(=O)[C@H](N)c3ccc(O)cc3)[C@H]2SC1 [Cefprozil] | %NTCP activity (human NTCP [1]; screen, 10 µM drug, [14C]taurocholate uptake): 129.621%; %NTCP binding (human NTCP [2]; [5]): 49.2677% |
| 93.1 | 76.3 | C[C@H]1c2cccc(O)c2C(=O)C2=C(O)[C@]3(O)C(=O)C(C(N)=O)=C(O)[C@@H](N(C)C)[C@@H]3[C@@H](O)[C@@H]21 [Doxycycline hydrochloride] |  |
|  |  | C[C@@H]1[C@H](O)[C@@H](C)/C=C/C=C/CC/C=C/C=C/C=C/C=C/C(O[C@H]2O[C@H](C)[C@@H](O)[C@H](N)[C@@H]2O)CC2O[C@](O)(CC(O)C(O)CCC(O)CC(O)CC(O)CC(=O)O[C@H]1C)CC(O)C2C(=O)O (stereo partly shown) [Nystatine] | %NTCP activity (human NTCP [1]): 57.0966%; %NTCP binding (human NTCP [2]; [4]): 89.5394% |
| 56.9 | 89.8 | Cc1c(-c2ccccc2)oc2c(C(=O)OCCN3CCCCC3)cccc2c1=O [Flavoxate hydrochloride] |  |
|  |  | CC(C)NC[C@H](O)COc1ccc(CC(N)=O)cc1 [(S)-(-)-Atenolol] | %NTCP activity (human NTCP [1]): 41.7476%; %NTCP binding (human NTCP [2]; [5]): 80.7107% |
| 120 | 84.6 | CCN(CCO)CCCC(C)Nc1ccnc2cc(Cl)ccc12 (stereo not shown) [Hydroxychloroquine sulfate] |  |
| 75.3 | 79.5 | CC1(C)O[C@@H]2[C@@H](CO[C@@]3(COS(N)(=O)=O)OC(C)(C)O[C@@H]23)O1 [Topiramate] |  |
| 85.5 | 44.7 | COC1=CC(=O)C[C@@H](C)[C@]12Oc1c(Cl)c(OC)cc(OC)c1C2=O [Griseofulvin] |  |
| 31.4 | 90.3 | CN(C)CCC(c1ccc(Cl)cc1)c1ccccn1 (stereo not shown) [Chlorpheniramine maleate] |  |
|  |  | CCN(CC)CCNC(C(=O)OCCC(C)C)c1ccccc1.Cl.Cl (stereo not shown) [Camylofine chlorhydrate] | %NTCP activity (human NTCP [1]): 107.759%; %NTCP binding (human NTCP [2]; [3]): 83.2082% |

| Structure (SMILES) | remaining activity at 10 µM (human NTCP [1]) [%] | remaining activity at 10 µM (human NTCP [2]; 0.5 h, read-out: %NTCP binding) [%] | other results |
| --- | --- | --- | --- |
| C#C[C@]1(O)CC[C@H]2[C@@H]3CCC4=CC(=O)CC[C@]4(C)[C@H]3CC[C@@]21C [Ethisterone] | 41.3 |  | remaining activity at 10 µM (human NTCP [2]; 0.5 h, read-out: %NTCP binding, Prestwick library screen, Myrcludex B-FITC binding, 10 µM drug): 96.9% |
| O=C(NCCNCC(O)COc1ccc(O)cc1)N1CCOCC1 (stereo not shown) [Xamoterol hemifumarate] | 76.8 | 87.1 |  |
| COc1ccc2[nH]c([S+]([O-])Cc3ncc(C)c(OC)c3C)nc2n1 (stereo not shown) [Tenatoprazole] | 108 | 67.2 |  |
| COC(=O)Nc1nc2ccc(C(=O)c3cccs3)cc2[nH]1 [Nocodazole] | 53.9 | 86.3 |  |
| O=P1(NCCCl)OCCCN1CCCl (stereo not shown) [Ifosfamide] | 104 |  | remaining activity at 10 µM (human NTCP [2]; 0.5 h, read-out: %NTCP binding, screen, 10 µM drug, Myrcludex B-FITC binding): 101% |
| CN[C@H]1CC[C@@H](c2ccc(Cl)c(Cl)c2)c2ccccc21 [Sertraline] | 99.9 | 80.1 |  |
| CCOC(=O)[N-]c1cn(N2CCOCC2)n[o+]1 [Molsidomine] | 76.7 | 75.3 |  |

Counter-ions that a name gives are not always drawn. Like-named read-outs stand apart in the source and are kept apart here.
